From the supplement of paper PMC4967469
By IC50 is meant the dose at which the fit gives 50% viability; fits outside the tested doses are given as limits. AUC is the area under the same curve over the 256-fold range up to the top dose, as a fraction; it is 1 without any effect and falls as sensitivity rises. A top dose marked as inferred comes from the curve model; the source does not state it.

What follows are cell lines tested with O=C1NC(=O)/C(=C\c2ccc3nccnc3c2)S1 [AS605240] (assay: Viability of human cancer cell lines after 72 h of drug (GDSC screen)). Conditions: top dose inferred.
Method: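 Human cancer cell lines in 384-well plates, medium with 10% serum, drug for 72 h over a 256-fold dose range (nine 2-fold or five 4-fold steps up to the top dose). Adherent lines were fixed and stained with the nucleic acid dye Syto60, suspension lines read with resazurin; signal relative to control wells, capped at 0 and 100%. One two-parameter sigmoid per drug and line, fitted in a mixed model over all curves with the slope shared within a line.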

Cell Line | AUC | IC50 [µM]
CHSA0011 (chondrosarcoma, adherent, top dose 20 µM) | 0.902 | > 20
CHSA0108 (chondrosarcoma, adherent, top dose 20 µM) | 0.897 | > 20
CHSA8926 (chondrosarcoma, adherent, top dose 20 µM) | 0.978 | > 20
CL-11 (large intestine, adherent, top dose 20 µM) | 0.956 | > 20
CMK (acute myeloid leukaemia, suspension, top dose 20 µM) | 0.786 | 7.25
COLO-205 (large intestine, suspension, top dose 20 µM) | 0.414 | 0.731
COLO-320-HSR (large intestine, suspension, top dose 20 µM) | 0.901 | 19.9
COLO-668 (small cell lung carcinoma, adherent, top dose 20 µM) | 0.68 | 3.99
COLO-678 (large intestine, semi-adherent, top dose 20 µM) | 0.985 | > 20
COLO-679 (melanoma, adherent, top dose 20 µM) | 0.973 | > 20
COLO-680N (oesophagus, adherent, top dose 20 µM) | 0.888 | > 20
COLO-684 (endometrium, suspension, top dose 20 µM) | 0.852 | 18.6
COLO-783 (melanoma, adherent, top dose 20 µM) | 0.965 | > 20
COLO-792 (melanoma, adherent, top dose 20 µM) | 0.676 | 3.84
COLO-800 (melanoma, adherent, top dose 20 µM) | 0.96 | > 20
COLO-824 (breast, adherent, top dose 20 µM) | 0.931 | > 20
COLO-829 (melanoma, adherent, top dose 20 µM) | 0.826 | > 20
COR-L23 (large cell lung carcinoma, adherent, top dose 20 µM) | 0.826 | 11.7
COR-L88 (small cell lung carcinoma, adherent, top dose 20 µM) | 0.982 | > 20
COR-L95 (small cell lung carcinoma, adherent, top dose 20 µM) | 0.977 | > 20
COR-L105 (lung adenocarcinoma, adherent, top dose 20 µM) | 0.666 | 4.03

Cell Line | AUC | IC50 [µM]
COR-L279 (small cell lung carcinoma, suspension, top dose 20 µM) | 0.975 | > 20
COR-L303 (small cell lung carcinoma, suspension, top dose 20 µM) | 0.814 | 10.4
COR-L311 (small cell lung carcinoma, suspension, top dose 20 µM) | 0.89 | > 20
COR-L321 (lung, suspension, top dose 20 µM) | 0.791 | 8.95
CP50-MEL-B (melanoma, adherent, top dose 20 µM) | 0.606 | 2.43
CP66-MEL (melanoma, adherent, top dose 20 µM) | 0.523 | 1.46
CPC-N (small cell lung carcinoma, suspension, top dose 20 µM) | 0.975 | > 20
CS1 (bone, adherent, top dose 20 µM) | 0.866 | > 20
CTB-1 (B-cell lymphoma, suspension, top dose 20 µM) | 0.686 | 5.07
CTV-1 (acute myeloid leukaemia, suspension, top dose 20 µM) | 0.92 | > 20
CW-2 (large intestine, adherent, top dose 20 µM) | 0.987 | > 20
Ca9-22 (head and neck, adherent, top dose 20 µM) | 0.85 | 13.5
Ca-Ski (cervix, adherent, top dose 20 µM) | 0.746 | 6.99
CaR-1 (large intestine, adherent, top dose 20 µM) | 0.892 | > 20
Calu-3 (lung adenocarcinoma, adherent, top dose 20 µM) | 0.827 | 16.7
Calu-6 (lung adenocarcinoma, adherent, top dose 20 µM) | 0.96 | > 20
Caov-3 (ovary, adherent, top dose 20 µM) | 0.873 | 15.3
Caov-4 (ovary, adherent, top dose 20 µM) | 0.554 | 1.88
Capan-2 (pancreas, adherent, top dose 20 µM) | 0.984 | > 20
ChaGo-K-1 (non-small cell lung carcinoma, adherent, top dose 20 µM) | 0.914 | > 20
D-247MG (glioma, adherent, top dose 20 µM) | 0.957 | > 20

Cell Line | AUC | IC50 [µM]
D-263MG (glioma, adherent, top dose 20 µM) | 0.913 | > 20
D-283MED (medulloblastoma, adherent, top dose 20 µM) | 0.979 | > 20
D-336MG (glioma, adherent, top dose 20 µM) | 0.912 | > 20
D-392MG (glioma, adherent, top dose 20 µM) | 0.879 | > 20
D-423MG (glioma, adherent, top dose 20 µM) | 0.697 | 5.09
D-502MG (glioma, adherent, top dose 20 µM) | 0.868 | > 20
D-542MG (glioma, adherent, top dose 20 µM) | 0.906 | > 20
D-566MG (glioma, adherent, top dose 20 µM) | 0.711 | 4.9
DAN-G (pancreas, adherent, top dose 20 µM) | 0.901 | > 20
DB (B-cell lymphoma, suspension, top dose 20 µM) | 0.922 | > 20
DBTRG-05MG (glioma, adherent, top dose 20 µM) | 0.79 | 10.7
DEL (lymphoid neoplasm, suspension, top dose 20 µM) | 0.912 | 18
DG-75 (Burkitt lymphoma, suspension, top dose 20 µM) | 0.933 | > 20
DJM-1 (skin, adherent, top dose 20 µM) | 0.836 | 13.1
DK-MG (glioma, adherent, top dose 20 µM) | 0.838 | > 20
DMS-53 (small cell lung carcinoma, adherent, top dose 20 µM) | 0.966 | > 20
DMS-79 (small cell lung carcinoma, suspension, top dose 20 µM) | 0.949 | > 20
DMS-114 (small cell lung carcinoma, adherent, top dose 20 µM) | 0.94 | > 20
DMS-273 (small cell lung carcinoma, adherent, top dose 20 µM) | 0.979 | > 20
DND-41 (T-cell leukaemia, suspension, top dose 20 µM) | 0.591 | 2.15
DOK (head and neck, adherent, top dose 20 µM) | 0.685 | 5.4

Cell Line | AUC | IC50 [µM]
DOV13 (ovary, adherent, top dose 20 µM) | 0.954 | > 20
DSH1 (bladder, adherent, top dose 20 µM) | 0.982 | > 20
DU-145 (prostate, adherent, top dose 20 µM) | 0.984 | > 20
DU-4475 (breast, suspension, top dose 20 µM) | 0.015 | < 0.0781
Daoy (medulloblastoma, adherent, top dose 20 µM) | 0.868 | 15.4
Daudi (Burkitt lymphoma, suspension, top dose 20 µM) | 0.891 | 18.1
Detroit562 (head and neck, adherent, top dose 20 µM) | 0.895 | > 20
DoTc2-4510 (cervix, adherent, top dose 20 µM) | 0.875 | 17.9
EB2 (Burkitt lymphoma, suspension, top dose 20 µM) | 0.641 | 2.95
EB-3 (Burkitt lymphoma, suspension, top dose 20 µM) | 0.866 | > 20
EBC-1 (lung squamous cell carcinoma, adherent, top dose 20 µM) | 0.824 | 14
EC-GI-10 (oesophagus, adherent, top dose 20 µM) | 0.983 | > 20
ECC10 (stomach, suspension, top dose 20 µM) | 0.929 | > 20
EFM-19 (breast, adherent, top dose 20 µM) | 0.806 | 17.5
EFM-192A (breast, adherent, top dose 20 µM) | 0.922 | > 20
EFO-21 (ovary, adherent, top dose 20 µM) | 0.952 | > 20
EFO-27 (ovary, adherent, top dose 20 µM) | 0.852 | > 20
EGI-1 (biliary tract, adherent, top dose 20 µM) | 0.66 | 4.01
